Data as given in patent US20220227872A1 (published 2022).

Target: T1, hTEM1-FL (full-length human TEM1 extracellular domain), soluble (UniProt Q9HCU0 18-687)
T1 chain: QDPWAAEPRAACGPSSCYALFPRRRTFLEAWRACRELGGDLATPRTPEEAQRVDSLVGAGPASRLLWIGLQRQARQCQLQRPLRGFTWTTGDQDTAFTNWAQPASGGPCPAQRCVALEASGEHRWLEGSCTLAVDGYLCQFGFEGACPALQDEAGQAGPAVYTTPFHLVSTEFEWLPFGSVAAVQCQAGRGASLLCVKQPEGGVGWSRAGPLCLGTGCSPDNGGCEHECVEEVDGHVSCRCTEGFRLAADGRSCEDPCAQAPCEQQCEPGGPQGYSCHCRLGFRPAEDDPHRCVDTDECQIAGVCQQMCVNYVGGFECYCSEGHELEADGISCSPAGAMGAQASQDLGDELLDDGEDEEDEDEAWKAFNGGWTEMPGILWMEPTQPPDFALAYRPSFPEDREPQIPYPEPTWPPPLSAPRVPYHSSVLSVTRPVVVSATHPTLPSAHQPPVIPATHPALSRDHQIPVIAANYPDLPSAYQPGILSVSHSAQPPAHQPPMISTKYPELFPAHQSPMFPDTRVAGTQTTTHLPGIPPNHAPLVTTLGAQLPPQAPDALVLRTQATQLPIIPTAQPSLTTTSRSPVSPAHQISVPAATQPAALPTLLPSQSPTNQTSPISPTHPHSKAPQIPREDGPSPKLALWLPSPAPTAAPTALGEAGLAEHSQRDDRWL
Assay: SPR; scFv-Fc immobilized, hTEM1-FL analyte

B1: anti-TEM1 scFv-Fc fusion 1C1mut (Fc fusion)
VH: QVQLVQSGAEVKKPGSSVKVSCKASGGTFSSYAISWVRQAPGQGLEWMGGIIPIFGTANYAQKFQGRVTITADKSTSTAYMELSSLRSEDTAVYYCASLISYYGDPTGFDYWGQGTLVTVSS
VL: QPVLTQPPSASGTPGQRVTIS[sequence of about 80 residues not given]FGGGTKLTVL
With B1 the Kd was roughly 1 nM.

B2: anti-TEM1 scFv-Fc fusion 1C1 (Fc fusion)
VH: QVQLVQSGAEVKKPGSSVKVSCKASGGTFSSYAISWVRQAPGQGLEWMGGIIPIFGTANYAQKFQGRVTITADKSTSTAYMELSSLRSEDTAVYYCASLTSYYGDPTGFDYWGQGTLVTVSS
VL: QPVLTQPPSASGTPGQRVTIS[sequence of about 80 residues not given]FGGGTKLTVL
B2 gave a Kd of roughly 80 nM.
